The list shows a part of the results. Most values come without repeats; read them as rough.
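Also: cells treated in 1,536-well plates, then fixed and DAPI-stained, with nuclei counted from automated high-throughput microscope images.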

The test system of the first test is WM115. Kind of test: cell count relative to DMSO control; melanoma cells; higher = more viable cells. The following applies: library dose: standard library concentration; 72 h.
`O=c1[nH]nc(Sc2ncc([N+](=O)[O-])s2)n1-c1ccc2c(c1)OCCO2` + O=C1NC(=O)/C(=C/c2ccc(-c3ccc(F)cc3O)o2)S1 [AS252424] (first compound 1 µM, partner dose 5 µM) returned a cell count of 116%.

In turn, `O=c1[nH]nc(Sc2ncc([N+](=O)[O-])s2)n1-c1ccc2c(c1)OCCO2` + CCc1ccc(CCOc2ccc(CC3SC(=O)NC3=O)cc2)nc1 [pioglitazone] (first compound 1 µM, partner dose 10 µM) displayed a cell count of 88.6%. `O=c1[nH]nc(Sc2ncc([N+](=O)[O-])s2)n1-c1ccc2c(c1)OCCO2` + O=C(O)C(=O)Nc1sc2c(c1C(=O)O)CCNC2 [TCS401] (first compound 1 µM, partner dose 8.33333 µM) came in with a cell count of 78.5%. Take `O=c1[nH]nc(Sc2ncc([N+](=O)[O-])s2)n1-c1ccc2c(c1)OCCO2` + Nc1cccc2c1CN(C1CCC(=O)NC1=O)C2=O [lenalidomide] (first compound 1 µM, partner dose 5 µM): the cell count came out at 78.9%. Regarding `O=c1[nH]nc(Sc2ncc([N+](=O)[O-])s2)n1-c1ccc2c(c1)OCCO2` + c1cc(-c2cnn3cc(-c4ccc(OCCN5CCCCC5)cc4)cnc23)ccn1 [Dorsomorphin] (first compound 1 µM, partner dose 2 µM), the cell count came to 75.4%. Regarding `O=c1[nH]nc(Sc2ncc([N+](=O)[O-])s2)n1-c1ccc2c(c1)OCCO2` + COc1ccc2c(c1)CCC1C2CCC2(C)C(NCCCCCCN3C(=O)C=CC3=O)CCC12 [U73122] (first compound 1 µM, partner dose 2 µM), the cell count was determined as 73.5%. On the same count and under the same terms, the result for `C[C@@H]1CCN(C(=O)CC#N)C[C@@H]1N(C)c1ncnc2[nH]ccc12` + Oc1nc(-c2ccc(C(F)(F)F)cc2)nc2c1CSCC2 [XAV939] (first compound 5 µM, partner dose 10 µM) reads 88.9%.

The next test concerns WM1716. Described as above. The following applies: library dose: standard library concentration; 72 h.
For the compound `O=c1[nH]nc(Sc2ncc([N+](=O)[O-])s2)n1-c1ccc2c(c1)OCCO2` + COc1cc(N2CCC(N3CCN(C)CC3)CC2)ccc1Nc1ncc(Cl)c(Nc2ccccc2S(=O)(=O)C(C)C)n1 [NVP-TAE684] (first compound 1 µM, partner dose 0.4 µM), the cell count was found to be 74.5%. Compound `O=c1[nH]nc(Sc2ncc([N+](=O)[O-])s2)n1-c1ccc2c(c1)OCCO2` + N#Cc1c(O)c2c(-c3ccc(-c4ccccc4O)cc3)csc2[nH]c1=O [A769662] (first compound 1 µM, partner dose 10 µM) yielded a cell count of 101%.

Compound `O=c1[nH]nc(Sc2ncc([N+](=O)[O-])s2)n1-c1ccc2c(c1)OCCO2` + O=c1cc(-c2cccc3c2Sc2ccccc2S3)oc(N2CCOCC2)c1 [KU55933] (first compound 1 µM, partner dose 5 µM) registered a cell count of 83.8%. As for `O=C(Nc1cccc(Cl)c1)Nc1ncc(CCNc2ncnc3ccsc23)s1` + CC(C)CCN1c2nc(Nc3cc(F)c(O)c(F)c3)ncc2N(C)C(=O)C1C [BID1870] (first compound 0.004 µM, partner dose 1 µM), the cell count is 32.1%. The same measure, in the same setting: the result for `Cn1cncc1[C@@](N)(c1ccc(Cl)cc1)c1ccc2c(c1)c(-c1cccc(Cl)c1)cc(=O)n2C` [tipifarnib] + COc1cc(N2CCC(N3CCN(C)CC3)CC2)ccc1Nc1ncc(Cl)c(Nc2ccccc2S(=O)(=O)C(C)C)n1 [NVP-TAE684] (first compound 0.05 µM, partner dose 0.4 µM) reads 62%. The compound `C[C@@H]1CCN(C(=O)CC#N)C[C@@H]1N(C)c1ncnc2[nH]ccc12` + CCCCCCCCCCCC1=C(O)C(=O)C=C(O)C1=O [Embelin] (first compound 5 µM, partner dose 6 µM) registered a cell count of 93%. Consider `C[C@@H]1CCN(C(=O)CC#N)C[C@@H]1N(C)c1ncnc2[nH]ccc12` + Cc1cc([N+](=O)[O-])ccc1NS(=O)(=O)c1cc(Cl)ccc1Cl [FH535] (first compound 5 µM, partner dose 5 µM), for which the cell count stood at 78.3%. `O=c1[nH]nc(Sc2ncc([N+](=O)[O-])s2)n1-c1ccc2c(c1)OCCO2` + COc1ccc(COc2ccc(Cc3cnc(N)nc3N)cc2OC)cc1 [GW2580] (first compound 1 µM, partner dose 5 µM) yielded a cell count of 118%. On to `O=C(O)c1ccc(-c2c[nH]c3ncc(-c4ccccc4)cc23)cc1C1CCCC1` + Oc1cc(-c2nc(-c3ccccc3)[nH]c2-c2ccncc2)ccc1Cl [L779450] (first compound 0.8 µM, partner dose 1 µM), for which the cell count stood at 62.2%.

The values above are taken from the supplement of paper PMC4604168 (melanoma cell lines).
